Measured values published in PubChem BioAssay AID504832 (National Center for Advancing Translational Sciences (NCATS), 2011).
Hit rate of the full screen: of about 310,000 compounds, about 18,000 (5.8%) were called active. This list was built around the results that the source calls inconclusive (neither active nor inactive); the mix of calls is not that of the screen. The call rests on the fitted dose curve; in most records, active means well fitted inhibition curve with a large enough effect; inconclusive means small, poorly fitted or top-dose-only effect, or another doubt; inactive means no such curve, though single readings can be large or run the other way. Potencies of inconclusive entries are left out as doubtful fits.

Test: Primary qHTS for delayed death inhibitors of the malarial parasite plastid, 48 hour incubation
Conditions: P. falciparum luciferase growth in erythrocytes; series mostly up to 28.7 µM
Summary of the method: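 Luciferase-expressing P. falciparum in infected erythrocytes (2% hematocrit, 0.1% parasitemia final) in RPMI 1640/0.5% Albumax were exposed to compound for 48 hours at 37 C, 5% CO2; growth read as luminescence.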
Potency means the concentration at half of the fitted maximal effect; tags describe the fitted curve by direction and shape.

Compound	Potency
CC(=O)c1ccc(OCC(=O)N2CCCC(N3CCN(c4ccccc4C)CC3)C2)cc1 (stereo not drawn)	inconclusive [inhibitor, partial curve, poor fit]
O=C(N/N=C/c1ccc2ncccc2c1)c1cccc([N+](=O)[O-])c1	inactive
CCOc1cccc2cc(-c3csc(NC(=O)CCC(=O)NCCCN4CCC(C)CC4)n3)c(=O)oc12	inactive
CCc1cccc(NC(=O)c2cccc3c2C(=O)N(C2CCCCC2)C3)c1	inconclusive [inhibitor, partial curve]
CCOC(=O)c1ccc(/C=C2/C=C(c3ccccc3)N(c3ccc(Cl)c(C(=O)O)c3)C2=O)cc1	inconclusive [inhibitor, single point]
CCOC(=O)c1ccc(NC(=O)N2CCN(c3ccccn3)CC2)cc1	inconclusive [inhibitor, partial curve]
O=S(=O)(Nc1ccc(N2CCCCC2)cc1)c1ccc(F)cc1	inactive
Cc1ccc(C(=O)N/C(=C\c2ccco2)C(=O)N2CCOCC2)cc1C	inconclusive [inhibitor, single point]
CC1(C(=O)N2CC3(CC(c4cccc(NC(=O)CC(c5ccccc5)c5ccccc5)c4)=NO3)C[C@@H]2C(N)=O)CC1 (stereo partly drawn)	inconclusive [inhibitor, single point]
O=C(c1ccc(Cl)c(Cl)c1)N1CCC(=O)N(C(COCc2cccc(C(F)(F)F)c2)Cc2ccccc2)CC1 (stereo not drawn)	inconclusive [inhibitor, partial curve, poor fit]
Cc1cc(Nc2ccc(Cl)cc2)nc(N2CCOCC2)n1	inactive
Cc1ccc(S(=O)(=O)N2CCn3cccc3C2C)cc1 (stereo not drawn)	inconclusive [inhibitor, single point]
Cc1cc(C(=O)NC2CCC(C)CC2)c(C)o1 (stereo not drawn)	inactive
COc1cccc(CC(=O)N2CCC(CCC(=O)Nc3cccc(OC)c3)CC2)c1	inconclusive [inhibitor, single point]
C=C(C)CN=C1NN=C(c2cc(C)n(-c3ccc(C)cc3)c2C)CS1	inconclusive [inhibitor, single point]
C=CCn1c(-c2oc3nc(-c4ccccc4)cc(-c4ccccc4)c3c2N)n[nH]c1=S	inconclusive [inhibitor, single point]
Clc1ccc(CN2C3=NCCN3c3ccccc32)cc1Cl	inconclusive [inhibitor, single point]
CCOc1ccc(OCC)c(NC(=O)CN(C)S(=O)(=O)c2ccc3nc(C)sc3c2)c1	inconclusive [inhibitor, single point]
COc1ccc(-n2c(Cc3cccn3C)nnc2SCC(=O)Nc2ccc(C)c(Cl)c2)cc1	inconclusive [inhibitor, partial curve, poor fit]
CN(C)CCCN(C(=O)c1ccc(Br)s1)c1nc2cc3c(cc2s1)OCCO3	inconclusive [inhibitor, single point]
O=C(c1ccc(OC2CCN(CCc3ccccc3)CC2)cc1)N1CCCC(O)C1 (stereo not drawn)	inconclusive [inhibitor, partial curve, poor fit]
COCCc1nn2c(=O)cc(COC(=O)c3cc(OC)c(OC)c(OC)c3)nc2s1	inconclusive [inhibitor, partial curve, poor fit]

Compound	Potency
Cc1ccc(N2C(=O)C3CC3C2=O)cc1 (stereo not drawn)	inconclusive [inhibitor, partial curve, poor fit]
COc1ccc(-n2c(SCC(=O)Nc3ccc(NC(C)=O)cc3)nc3c([nH]c4ccccc43)c2=O)cc1OC	inconclusive [inhibitor, single point]
Cc1csc(NC(=O)c2ccc(S(=O)(=O)N(C)c3ccccc3)cc2)n1	inconclusive [inhibitor, partial curve, poor fit]
COC(=O)[C@H](Cc1ccccc1)NC(=O)Nc1ccc(OC)cc1	inactive
CC1CC1C(=O)OCC(=O)N(C)c1c(N)n(Cc2ccccc2)c(=O)[nH]c1=O (stereo not drawn)	inactive
CCCCN(CC)C(=O)c1ccc(-c2ccccc2)cc1	inconclusive [inhibitor, single point]
COc1ccccc1CCCNC(=O)C1CCC(=O)N(CCN2CCOCC2)C1 (stereo not drawn)	inactive
O=C(Nc1nc2ccccc2[nH]1)c1ccccc1F	inconclusive [inhibitor, single point]
CC1CN(C(=O)N2c3ccccc3Sc3ccccc32)CC(C)O1 (stereo not drawn)	inconclusive [inhibitor, single point]
CS(=O)(=O)c1nc(S(=O)(=O)c2ccc(Cl)cc2)c(N2CCC(C(N)=O)CC2)s1	inconclusive [inhibitor, single point]
Cc1cccc(CNC(=O)c2cc(S(=O)(=O)N3CCOCC3)cn2C)c1	inactive
COc1ccc(-c2cc(C(=O)O)c3ccccc3n2)c(OC)c1	inactive
Cn1c(=O)cc(OCC(=O)N2CCN(Cc3ccc4c(c3)OCO4)CC2)c2ccccc21	inconclusive [inhibitor, single point]
O=C(NC1CCCc2ccccc21)c1ccccc1Br (stereo not drawn)	inactive
C=CCNC(=O)C1CCN(S(=O)(=O)c2cccs2)CC1	inactive
Cc1cc(-n2c(C)cc(C(=S)N3CCOCC3)c2C)ccc1Br	inconclusive [inhibitor, single point]
Cc1nn(-c2ccc(F)cc2)c2c1cc(C#N)c1nc3ccccc3n12	inactive
NNC(=O)c1ccc(N2CCc3ccccc32)c([N+](=O)[O-])c1	inconclusive [inhibitor, single point]
COc1ccc(Cc2nnc(NC(=O)C3CCCO3)s2)cc1 (stereo not drawn)	inactive
COc1ccc(N2CCN(S(=O)(=O)CCNC(=O)CCCc3ccccc3)CC2)cc1	inconclusive [inhibitor, single point]
CN(c1cccc(NC(=O)CN(c2cccc(Cl)c2)S(=O)(=O)c2ccccc2)c1)S(C)(=O)=O	inconclusive [inhibitor, single point]
